The text below walks through data of patent publication US20220348686A1 (Memorial Sloan Kettering, published 2022).

In experiment [1] the target is T1, Mouse STEAP1 (mouse, UniProt Q9CWR7 1-339).
T1 construct: Transfected into HEK293 cells with a lentiviral vector (GFP part of the transgene); also called STP1m
Kind of experiment: cell binding assays, FACS. On the procedure: To accurately determine the epitope of BC261 BsAb, the following four STEAP1 variants were constructed: human STEAP1 (STP1h), mouse STEAP1 (STP1m), mouse STEAP1 with human 2nd ECD (STP1mH2), and mouse STEAP1 with human 3rd ECD (STP1mH3). To express the STEAP1 variants on the cell surface, these variants were transfected into HEK293 cells using a lentiviral vector. GFP was a part of the transgene and used as a selection marker to FACS sort GFP (+) cells. […] Since GFP was a part of the transgene, GFP expression was an indirect measure of STEAP1 expression.
The variants were stained using the BC261 BsAb and binding was detected using flow cytometry.

The target of experiment [2] is Human STEAP1 (human, UniProt Q9UHE8 1-339). Kind of experiment: cell-based or functional assay.
Experiment [3] has as its target T2, Canine STEAP1 (canine, UniProt Q9UHE8 1-339 (human entry)).
T2 construct: Endogenous on canine osteosarcoma cell lines D-17, DSN, DSDh and DAN; also called dog STEAP1
As to the kind of experiment: FACS staining of canine osteosarcoma cell lines.

Where “and” joins values, the source holds several entries; their conditions need not be identical. Equal entries are not always repeated.

T1 sequence (Q9CWR7 whole entry): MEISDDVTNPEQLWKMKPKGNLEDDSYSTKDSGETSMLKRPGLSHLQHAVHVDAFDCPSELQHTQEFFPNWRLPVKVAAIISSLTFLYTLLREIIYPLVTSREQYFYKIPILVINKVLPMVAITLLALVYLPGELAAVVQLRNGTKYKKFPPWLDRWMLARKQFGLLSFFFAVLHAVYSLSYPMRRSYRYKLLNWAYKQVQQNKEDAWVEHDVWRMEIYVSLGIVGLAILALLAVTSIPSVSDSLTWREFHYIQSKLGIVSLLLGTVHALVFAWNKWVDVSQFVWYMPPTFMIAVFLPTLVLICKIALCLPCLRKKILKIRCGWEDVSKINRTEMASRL

B1: BiClone261 (BC261) STEAP1-CD3 BsAb (bispecific antibody)
heavy: DVQVQESGPGLVKPSQTLSLTCTVTGYSITSDYAWNWIRQPPGKGLEWMGYISNSGSTSYNPSLKSRITISRDTSKNQFSLKLSSVTAADTAVYYCARERNYDYDDYYYAMDYWGQGTTLTVSAASTKGPSVFPLAPSSKSTSGGTAALGCLVKDYFPEPVTVSWNSGALTSGVHTFPAVLQSSGLYSLSSVVTVPSSSLGTQTYICNVNHKPSNTKVDKRV[no letters for human IgG1 Fc with N297A K322A (EU numbers)]
light: DIVMTQSPDSLAVSVGERVTMNCKSSQSLLYRSNQKNYLAWYQQKPGQPPKLLIYWASTRESGVPDRFSGSGSGTDFTLTISSVQAEDVAVYYCQQYYNYPRTFGGGTKVEIKRTVAAPSVFIFPPSDEQLKSGTASVVCLLNNFYPREAKVQWKVDNALQSGNSQESVTEQDSKDSTYSLSSTLTLSKADYEKHKVYACEVTHQGLSSPVTKSFNRGECTSGGGGSGGGGSGGGGSQVQLVQSGGGVVQPGRSLRLSCKASGYTFTRYTMHWVRQAPGKCLEWIGYINPSRGYTNYNQKFKDRFTISRDNSKNTAFLQMDSLRPEDTGVYFCARYYDDHYSLDYWGQGTPVTVSSGGGGSGGGGSGGGGSGGGGSGGGGSGGGGSDIQMTQSPSSLSASVGDRVTITCSASSSVSYMNWYQQTPGKAPKRWIYDTSKLASGVPSRFSGSGSGTDYTFTISSLQPEDIATYYCQQWSSNPFTFGCGTKLQITR
notes: IgG-scFv format: X120_VH-2 heavy chain; X120_VL-2 light chain extended by a (G4S)3 linker and huOKT3 anti-CD3 scFv; also called anti-STEAP1-BsAb BC261; L2+H2
In the case of B1, the values for the binding result in experiment [1] and in experiment [3] were “no binding” and “binds”, respectively. Also, the “EC50, T cell cytotoxicity, 4-hour 51Cr release assay, LNCaP-AR cells” value in experiment [2] was 1.69 pM and 0.000345 µg/mL. Moreover, the “EC50, T cell cytotoxicity, 4-hour 51Cr release assay, TC32 cells” value in experiment [2] is 3.6 pM and 0.0009 µg/mL.
